# Laboratory results published in PubChem BioAssay AID485294 (National Center for Advancing Translational Sciences (NCATS), 2010).
# In all, about 370,000 compounds went through this assay and about 150 (0.041%) were called active. The shares of active, inactive and inconclusive entries below differ from those in the screen. The call rests on the fitted dose curve; in most records, active means well fitted inhibition curve with a large enough effect; inconclusive means small, poorly fitted or top-dose-only effect; inactive means flat fitted curve, though single readings scatter. Potencies of inconclusive entries are left out as doubtful fits.
# Target: Beta-lactamase (Escherichia coli (strain K12)) (UniProt P00811)
# Test: qHTS Inhibitors of AmpC Beta-Lactamase (assay with detergent); further: nearly all actives have a fitted effect of over 25% in size;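 on activity change, negative = inhibition: 0% = no-compound wells and -100% = no-enzyme wells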
# Details: AmpC hydrolysis of nitrocefin, absorbance 480 nm, 0.01% Triton; activity change, negative = inhibition: at 114 µM (top of the series)
# Procedure, shortened: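 AmpC (5.3 nM in the dispensed reagent) in 20 mM phosphate pH 7.0 with 0.01% (detergent screen) or 0.0001% Triton X-100 was preincubated with compounds for 15 min at room temperature. Nitrocefin was then added from an 800 uM solution, and hydrolysis was followed at 480 nm.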
# Potency means the concentration at half of the fitted maximal effect; tags describe the fitted curve by direction and shape.
# Sequence of UniProt P00811 (P00811 whole entry, looked up): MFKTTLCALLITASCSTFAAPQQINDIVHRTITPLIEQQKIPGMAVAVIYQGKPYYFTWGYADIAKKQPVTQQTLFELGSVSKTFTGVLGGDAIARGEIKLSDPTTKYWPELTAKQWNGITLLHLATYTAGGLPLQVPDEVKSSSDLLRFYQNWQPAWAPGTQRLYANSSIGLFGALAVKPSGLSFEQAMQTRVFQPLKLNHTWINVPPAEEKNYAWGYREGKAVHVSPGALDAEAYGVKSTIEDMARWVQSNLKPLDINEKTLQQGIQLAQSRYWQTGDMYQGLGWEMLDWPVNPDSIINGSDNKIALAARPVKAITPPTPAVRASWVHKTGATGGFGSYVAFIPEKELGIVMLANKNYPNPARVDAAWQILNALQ
Structure (SMILES),"activity change, negative = inhibition",Potency
Cc1nnc(NC(=O)CSc2ccccc2N)s1,inactive: 5.86%,
O=C(CCCc1ccccc1)Nc1cccnc1,,"inconclusive [inhibitor, single point]"
Cc1ccc(S(=O)(=O)Nc2ccc(C(=O)N3CCN(c4ccccc4O)CC3)cc2)cc1[N+](=O)[O-],,"inconclusive [inhibitor, full curve, poor fit]"
OCc1c[nH]c2ccccc12,,"inconclusive [inhibitor, partial curve, poor fit]"
CCNc1nc(NC(C)C)nc(N(C#N)CCOc2ccc(Cl)cc2Cl)n1,,"inconclusive [inhibitor, full curve, poor fit]"
COc1ccc(NS(=O)(=O)c2cccc(NC(=O)CCS(=O)(=O)c3ccccc3)c2)cc1,inactive: -9.62%,
CCOC(=O)CCCNC(=O)COC(=O)c1cc(Br)c(Br)s1,,"inconclusive [inhibitor, full curve, poor fit]"
CC(NC(=O)CSc1n[nH]c(N)n1)c1ccccc1 (configuration not stated),,"inconclusive [inhibitor, full curve, poor fit]"
CCOC(=O)N1CCN(C(=O)COc2ccc3ccccc3c2Br)CC1,inactive: 4.29%,
Cc1cc(C)cc(N(CCC#N)C(=O)CSc2n[nH]c(N)n2)c1,inactive: -8.77%,
Cn1cccc1C(=O)C(=O)Nc1cccc(Cl)c1Cl,,"inconclusive [inhibitor, full curve, poor fit]"
COC(=O)c1cccc(C23CC4(C2)[C@H](CN(Cc2cccnc2)[C@@H]4c2ccccc2)C3c2ccc(C(F)(F)F)cc2)c1 (some centres not stated),inactive: -2.16%,
Cc1ccc(C(=O)N2c3ccccc3OCC2C)cc1 (configuration not stated),inactive: 1.45%,
CCCCn1c(N)c(N(CCOC)C(=O)c2cc3ccccc3cc2OC)c(=O)[nH]c1=O,,"inconclusive [inhibitor, single point]"
COc1cccc(/C=N/NC(=O)c2cc(-c3cccn3C)n[nH]2)c1O,,"inconclusive [inhibitor, partial curve]"
Cc1ccc(S(=O)(=O)NC(C)CCc2ccccc2)cc1C(N)=O (configuration not stated),inactive: 10.4%,
COc1ccc(-c2[nH]ncc2C(=O)NCc2ccccc2C)cc1,inactive: 1.61%,
O=Cc1cn(CC(=O)Nc2ccc(F)cc2)c2ccccc12,,"inconclusive [inhibitor, single point]"
COc1ccc(CSc2ncn[nH]2)cc1[N+](=O)[O-],,"inconclusive [inhibitor, full curve]"
COc1ccc2oc(C(=O)OCC(=O)NC3CCCCC3)c(C)c2c1,,"inconclusive [inhibitor, full curve, poor fit]"
CC(NC(=O)CN1C(=O)NC(Cc2ccccc2)(Cc2ccccc2)C1=O)C12CC3CC(CC(C3)C1)C2 (configuration not stated),,"inconclusive [inhibitor, partial curve]"
COC(=O)C1=C(C)NC(=S)NC1c1ccc(-c2cccc(Cl)c2)o1 (configuration not stated),inactive: -0.192%,
COc1ccc(S(=O)(=O)NCC2CCC(C(=O)NCCC(C)C)CC2)cc1 (configuration not stated),,"inconclusive [inhibitor, full curve, poor fit]"
COc1cc(/C=N\NC(=O)c2ccccc2F)ccc1Oc1ccc([N+](=O)[O-])cn1,inactive: 2.38%,

Structure (SMILES),"activity change, negative = inhibition",Potency
COc1ccc(-n2c(N)c(C(=O)NCc3ccco3)c3nc4ccccc4nc32)cc1OC,,"inconclusive [inhibitor, partial curve, poor fit]"
COc1ccccc1NC=C1C(=O)OC2(CCCCC2)OC1=O,inactive: 3.02%,
CCO/N=C(/C)c1c(O)cc(C(C)(C)C)n(-c2ccccc2)c1=O,,"inconclusive [inhibitor, partial curve, poor fit]"
CSc1ncc(Cl)c(C(=O)Nc2ccccc2C)n1,,"inconclusive [inhibitor, partial curve, poor fit]"
CCCc1nc2sc3c(c2c(=O)n1NC(=O)c1ccco1)CC(C)(C)OC3,inactive: -9.63% [at 57.1 µM],
O=C(CSc1nncs1)Nc1nccs1,,"inconclusive [inhibitor, partial curve, poor fit]"
Cc1cc2oc(C(=O)Nc3c(C(=O)Nc4ccccc4)oc4ccccc34)cc(=O)c2cc1C,inactive: 1.73%,
COc1ccc2oc(C(=O)NN3C(C)CCCC3C)c(C)c2c1 (configuration not stated),,"inconclusive [inhibitor, full curve, poor fit]"
Cc1cc([N+](=O)[O-])ccc1NC(=O)c1cccc(NC(=O)C(C)C)c1,inactive: -9.79%,
CCOc1cc(/C=C\[N+](=O)[O-])ccc1OCC(=O)N1CCOCC1,inactive: 2.86%,
CN(C)c1ccc(NC(=O)c2sc(SCC(=O)Nc3nccs3)nc2N)cc1,,"inconclusive [inhibitor, full curve, poor fit]"
Cc1cccn2c(=O)c(C(=O)NCCCN3CCCCC3C)c(O)nc12 (configuration not stated),,inactive
O=C(CSCc1ccccc1Cl)N1CCN(c2ccc(F)cc2)CC1,inactive: 7.6%,
CCOc1ccc2c(c1)S/C(=C\c1cccs1)C(=O)N2,,"inconclusive [inhibitor, single point]"
Cc1ccc(S(=O)(=O)N2CCN(C(=O)CSc3ncn[nH]3)CC2)c(C)c1,,"inconclusive [inhibitor, full curve, poor fit]"
CCN(CC)S(=O)(=O)c1ccc2c(c1)nc(CCC(=O)Nc1ccc3c(c1)OCO3)n2C,inactive: 1.52%,
Cn1c(N)c(C(=O)COC(=O)CCC(=O)c2ccc(F)cc2)c(=O)n(C)c1=O,,"inconclusive [inhibitor, full curve, poor fit]"
CC1=CS(=O)(=O)CC1Sc1nc2ccccc2[nH]1 (configuration not stated),,"inconclusive [inhibitor, single point]"
COc1ccc(N=C2NC(=O)/C(=C/c3ccco3)S2)cc1,inactive: 1.62%,
Cn1cnnc1SCC(=O)NCCc1ccc(Cl)cc1Cl,,"inconclusive [inhibitor, full curve, poor fit]"
CCOC(=O)c1cccc(NC(=O)CN2C(=O)c3ccccc3Sc3ncccc32)c1,inactive: 12.4%,
CCCCN(Cc1cc2cccc(C)c2[nH]c1=O)S(C)(=O)=O,inactive: -1.15%,
c1ccc(-c2ccc(-n3ccnc3)cc2)cc1,,"inconclusive [inhibitor, full curve, poor fit]"
